Data: PubChem BioAssay (NCATS)
Inconclusive means that the source gave no clear call. Such entries were picked first, then a sample of the others. A potency beside an inconclusive call is a rough fit, not a confirmed value. Calls of active or inactive are those of the source. Calls come from the whole dose curve; as a rule, active = well fitted curve in the direction sought with a large enough effect; inconclusive = small, poorly fitted or top-dose-only effect, or another doubt; inactive = no such curve, though single readings can be large; an effect the other way counts as inactive or inconclusive.

Assays:
[1] = molecular target: Rap guanine nucleotide exchange factor 3 (Homo sapiens) (UniProt O95398); test: Confirmatory qHTS for antagonist of cAMP-regulated guanine nucleotide exchange factor 3 (EPAC1) (AID 1645880); details: EPAC1 Rap1B-BODIPY-GDP exchange, fluorescence; activity, negative = inhibition: at 115 µM (top of the series); note: nearly all actives have a fitted effect of over 55% in size;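 for activity, negative = inhibition: plate controls were DMSO only for no effect and full effect of the ATA control for full effect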
In short: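 Released BODIPY-GDP fluoresces less than Rap1-bound BODIPY-GDP; the signal is followed at 480/540 nm at 5-min intervals over 30 min, after 5 min at room temperature. Reactions contain 100 nM EPAC1, 250 nM RAP1B-BODIPY-GDP and 50 uM GDP; results are normalized to ATA and DMSO.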

[2] = molecular target: Rap guanine nucleotide exchange factor 3 (Homo sapiens) (UniProt O95398); test: Counterscreen qHTS for agonist of cAMP-regulated guanine nucleotide exchange factor 3 (EPAC1) (AID 1645889); details: EPAC1 Rap1B-BODIPY-GDP exchange, fluorescence; activation: at 154 µM (top of the series) unless noted; note: nearly all actives have a fitted effect of over 40% in size; for activation: % of control where 0% means no effect
In short: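 Rap1B-BODIPY-GDP 250 nM + GDP 50 uM; cpds 7-pt, final 9.74 nM–152 uM (activator mode) or from 7.32 nM upwards (inhibitor mode); RT; FI 480/540 nm at 5 and 30 min, then ± cAMP, reread.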
Potency is the fitted concentration of half-maximal effect; tags give direction and shape of the fitted curve.

UniProt O95398, sequence (O95398 whole entry, looked up): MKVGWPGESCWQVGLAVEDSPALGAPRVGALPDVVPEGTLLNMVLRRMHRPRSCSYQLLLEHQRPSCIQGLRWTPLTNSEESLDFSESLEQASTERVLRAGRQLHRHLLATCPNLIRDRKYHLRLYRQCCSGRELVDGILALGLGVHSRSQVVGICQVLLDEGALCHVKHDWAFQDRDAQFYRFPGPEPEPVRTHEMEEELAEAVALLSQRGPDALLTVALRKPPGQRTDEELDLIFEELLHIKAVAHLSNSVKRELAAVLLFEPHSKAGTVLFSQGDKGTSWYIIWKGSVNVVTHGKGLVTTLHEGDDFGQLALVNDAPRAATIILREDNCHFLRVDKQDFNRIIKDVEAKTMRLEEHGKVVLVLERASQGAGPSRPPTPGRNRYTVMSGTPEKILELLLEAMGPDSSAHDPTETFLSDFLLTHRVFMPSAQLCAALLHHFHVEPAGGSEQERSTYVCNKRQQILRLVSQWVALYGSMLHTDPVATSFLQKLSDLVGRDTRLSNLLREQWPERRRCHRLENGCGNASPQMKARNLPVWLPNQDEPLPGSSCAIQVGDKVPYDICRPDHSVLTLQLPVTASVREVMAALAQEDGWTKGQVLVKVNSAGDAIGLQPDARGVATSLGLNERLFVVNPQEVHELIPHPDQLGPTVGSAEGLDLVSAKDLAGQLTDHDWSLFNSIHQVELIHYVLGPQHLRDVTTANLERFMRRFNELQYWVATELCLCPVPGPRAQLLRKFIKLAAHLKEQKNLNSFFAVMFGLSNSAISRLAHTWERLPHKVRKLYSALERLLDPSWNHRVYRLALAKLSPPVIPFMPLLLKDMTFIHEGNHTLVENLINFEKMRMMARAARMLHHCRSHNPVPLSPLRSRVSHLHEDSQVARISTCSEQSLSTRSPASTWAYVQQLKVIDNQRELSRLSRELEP

Structure (SMILES)	Potency [1]	Potency [2]	activation [2]
O=C(NC1CCN(Cc2ccccc2)CC1)c1cn(-c2ccccc2)nc1-c1cccnc1	inactive	inactive	
OC(c1ccc(F)c(F)c1)c1nc(-c2csc3ccccc23)cs1 (configuration not stated)	inconclusive: 39.8 µM [inhibitor, partial curve, poor fit]		inactive: 2.58% [at 30.8 µM]
COc1cc(NC(=O)c2cccc([N+](=O)[O-])c2)ccc1NC(=O)c1ccco1	inconclusive: 84.9 µM [inhibitor, partial curve, poor fit]		inconclusive: 43.7% [activator]
CC(c1ccccc1)n1cc2c(c1-c1ccccc1Br)c(=O)n(C)c(=O)n2C (configuration not stated)	inconclusive: 75.7 µM [inhibitor, partial curve]	inconclusive: 39.8 µM [activator, partial curve, poor fit]	
COc1ccc(C(=O)N(Cc2ccco2)Cc2ccc(C)o2)cc1	inconclusive: 95.3 µM [inhibitor, single point]		inconclusive: 36.8% [activator]
COc1ccc(Cn2c(-c3ccc(C)cc3)nc3c(c(=O)c4ccccc4n3C)c2=O)cc1	inconclusive: 39.8 µM [inhibitor, partial curve]	inconclusive: 0.0028 µM [activator, full curve, poor fit]	
COc1ccc(CN2C(=O)CN(S(C)(=O)=O)CC2(C)C(=O)Nc2c(C)cccc2C)cc1OC (configuration not stated)	inactive	inconclusive: 0.112 µM [activator, full curve, poor fit]	
CC1=C(C(=O)Nc2ccccc2)C(c2ccc(Cl)cc2)n2c(s/c(=C/c3cccc(OCC(=O)O)c3)c2=O)=N1 (configuration not stated)	inconclusive: 50.1 µM [inhibitor, partial curve]		inconclusive: 30% [activator] [at 30.8 µM]
CC1Cc2cc(/C=C3/SC(=S)NC3=O)ccc2O1 (configuration not stated)	active: 30.1 µM		inconclusive: 26.4% [activator]
CC(Oc1ccc(Cl)cc1Cl)C(=O)NC1=NN(c2ccccc2)C(=O)C1 (configuration not stated)	inconclusive: 75.7 µM [inhibitor, partial curve]	inactive	
Cc1ccc(S(=O)(=O)NC2CC(=O)N(c3ccc4c(c3)OCCO4)C2)cc1 (configuration not stated)	inactive		inactive: 22.6% [at 30.8 µM]
CCc1nc2c(OCc3ccc(C(F)(F)F)cc3)cccn2c1N(C)C(=O)C1CC1	inconclusive: 53.6 µM [inhibitor, partial curve, poor fit]	inactive	
COC(=O)c1ccc2nc(-c3ccc(Cl)cc3)c(Cc3ccsc3)n2c1	inconclusive: 37.9 µM [inhibitor, partial curve, poor fit]	inactive	
Cc1[nH]n(-c2ccccc2)c(=O)c1C(c1ccc(C(=O)O)cc1)c1c(C)[nH]n(-c2ccccc2)c1=O	inactive	active: 1.78 µM	
Cc1ccc(O)c(-c2n[nH]c3c2C(c2ccccc2F)N(Cc2ccco2)C3=O)c1 (configuration not stated)	inconclusive: 75.7 µM [inhibitor, partial curve]	inconclusive: 11.2 µM [activator, partial curve]	
Nc1nc2c(ncn2[C@@H]2O[C@H](CNCc3ccccc3)[C@@H](O)[C@H]2O)c(=O)[nH]1	inactive		inconclusive: 29.5% [activator]
CSc1nc(N2CCOCC2)c2c3c(sc2n1)CCC3	inactive	inconclusive: 22.4 µM [activator, full curve, poor fit]	
COc1ccc(-c2cc(OC(=O)c3ccc(Cl)cc3)c3c(C)oc(C)c3c(=O)c2)cc1	active: 75.7 µM		inconclusive: 47.9% [activator]
Cc1ccc(C)n1-c1ccc(C(=O)/C=C/N(C)C)cc1	inconclusive: 50.1 µM [inhibitor, partial curve, poor fit]		inactive: 0.307% [at 30.8 µM]
Cn1c(Cc2cccs2)nnc1SCc1nc2ccccc2[nH]1	inactive		inactive: 30.7% [at 30.8 µM]
C/C(CC(=O)Nc1ccc2ccccc2c1)=N\NC(=O)c1ccc(O)c(O)c1	active: 53.6 µM	inactive	
O=C1COc2ccc(C(=O)COC(=O)c3ccc([N+](=O)[O-])cc3Cl)cc2N1	inactive	inactive	
Cc1[nH][nH]c(=O)c1C(c1c(C)[nH][nH]c1=O)c1cn(Cc2ccccc2Cl)c2ccccc12	active: 75.7 µM	inconclusive: 1.12 µM [activator, partial curve, poor fit]	

Structure (SMILES)	Potency [1]	Potency [2]	activation [2]
CCOc1cc(/C=C2/NC(=O)NC2=O)cc(Br)c1OCc1ccc(C(=O)O)cc1	inconclusive: 39.8 µM [inhibitor, partial curve]		inconclusive: 56.9% [activator] [at 30.8 µM]
Cc1cc(SCC(=O)c2ccc(O)c(O)c2)n2nc(C)c(-c3ccccc3)c2n1	inconclusive: 47.8 µM [inhibitor, partial curve, poor fit]	inconclusive: 14.1 µM [activator, partial curve, poor fit]	
O=S(=O)(Nc1ccc(Cl)cc1NS(=O)(=O)c1ccccc1)c1ccccc1	inconclusive: 56.2 µM [inhibitor, partial curve]	inconclusive: 0.0355 µM [activator, full curve, poor fit]	
Cc1ccc2nc(N3C(=O)C(O)=C(C(=O)c4ccc(C)o4)C3c3cccc(O)c3)sc2c1 (configuration not stated)	active: 37.9 µM	inconclusive: 0.562 µM [activator, full curve, poor fit]	
CSCCC(C(=O)O)N1C(=O)c2ccc(C(=O)O)cc2C1=O (configuration not stated)	inactive	inconclusive: 0.0079 µM [activator, full curve, poor fit]	
CCCCC(CC)C(=O)Oc1ccc(O)c(C(C)(C)C)c1 (configuration not stated)	inconclusive: 25.1 µM [inhibitor, full curve]		inactive: -16.7% [at 30.8 µM]
Cc1ccc(N=Cc2c(O)c3ccccc3n(C)c2=O)cc1	inconclusive: 53.6 µM [inhibitor, partial curve]		inconclusive: 34.8% [activator]
CCCS(=O)(=O)c1c(S(=O)(=O)CCC)c2cnccn2c1C(=O)c1ccc(CC)cc1	inconclusive: 39.8 µM [inhibitor, partial curve, poor fit]		inconclusive: 67.6% [activator] [at 30.8 µM]
Cn1nc(-c2ccccn2)nc2c(=O)n(C)c(=O)nc1-2	active: 1.69 µM	inconclusive: 0.0282 µM [activator, full curve, poor fit]	
CN(C)C(=O)c1cccc(-c2cnc3c(NC=O)cc(-c4ccccc4Cl)cn23)c1	inconclusive: 84.9 µM [inhibitor, partial curve]	inconclusive: 44.7 µM [activator, partial curve, poor fit]	
COc1cccc(C2=NN(C(=O)c3ccco3)C(O)(C(F)(F)F)C2)c1 (configuration not stated)	inactive	inconclusive: 0.562 µM [activator, full curve, poor fit]	
COc1cccc(/C=C2\SC(=S)NC2=O)c1OS(=O)(=O)c1ccc(NC(C)=O)cc1	inconclusive: 50.1 µM [inhibitor, partial curve]	inconclusive: 0.01 µM [activator, full curve, poor fit]	
CCN(CC)C(=O)CC(c1ccc2c(c1)OCO2)c1c(O)cc(OC)cc1OC (configuration not stated)	inactive		inconclusive: 53.1% [activator]
CCCn1c(/C=C/c2ccco2)nc2ccccc21	inconclusive: 50.1 µM [inhibitor, partial curve, poor fit]		inactive: 26.1% [at 30.8 µM]
COc1ccc(Cl)cc1N1C(=O)C2CCCN2C1c1ccccc1F (configuration not stated)	inactive	inconclusive: 0.01 µM [activator, full curve, poor fit]	
CC(=O)c1cc(CC(=O)N2CCc3c([nH]c4ccccc34)C2c2ccccn2)cs1 (configuration not stated)	inactive	inactive	
CC(C)C[C@H]1CNC(=O)C(=O)N1C[C@@H]1CCCN1C[C@H](Cc1ccc(O)cc1)N1C[C@H](Cc2ccccc2)N(CC2CCCCC2)C(=O)C1=O	inconclusive: 75.7 µM [inhibitor, partial curve]	inactive	
COc1ccc(Nc2cc(C(=O)NCCCN3CCN(c4ccccc4F)CC3)c3ccccc3n2)c(OC)c1	inconclusive: 95.3 µM [inhibitor, single point]	inconclusive: 6.31 µM [activator, partial curve, poor fit]	
COc1ccc(N2CCN(C(=O)c3sc4nc(-c5ccc(F)cc5)cn4c3C)CC2)cc1	inactive	inactive	
Cc1ccc(C(=O)N2CCc3cc(CNC(=O)CSc4ccccc4)ccc32)cc1	inconclusive: 95.3 µM [inhibitor, partial curve, poor fit]	inconclusive: 6.31 µM [activator, full curve, poor fit]	
CCN1CCc2c(sc(-n3cccc3)c2C(C)NC(=O)Nc2ccc(C(=O)OC)cc2)C1 (configuration not stated)	inconclusive: 95.3 µM [inhibitor, single point]	inactive	
COC(=O)c1ccc(CSc2nc3scc(-c4cccs4)c3c(=O)[nH]2)o1	inconclusive: 53.6 µM [inhibitor, partial curve]	inconclusive: 14.1 µM [activator, partial curve]	
CCc1cc2c(-c3ccccc3)cc(=O)oc2cc1OCC(=O)NCC1CCC(C(=O)O)CC1 (configuration not stated)	inactive	inconclusive: 0.316 µM [activator, full curve, poor fit]	
